# A collection of fitness landscapes (doi:10.1016/j.celrep.2020.107928)
# In all, about 81,000 sequences were measured (“one-hybrid fitness for binding NBS DNA”: median about -0.1, highest 2% from about 0.36 on). This is one part of the list.
# B1: Caulobacter ParB omega fusion; a variant is named by its letters at X, in order, B8GW30 (parent)
# chain: MESVVVGEPGMSEGRRGLGRGLSALLGEVDAAPAQAPGEQLGGSREAPIEILQRNPDQPRRTFREEDLEDLSNSIREKGVLQPILVRPSPDTAGEYQIVAGERAWRAAQRAGLKTVPIMVRELDDLAVLEIGIIENVQRADLNVLEEALSYKVLMEKFERTQENIAQTIGKSXSHVANXMRLLXLPDEVQSYLVSGELTAXHARAIAAAADPVALAKQIIEGGLSVRETEALARKAPNLSAGKSKGGRPPRVKDTDTQALESDLSSVLGLDVSIDHRGSTGTLTITYATLEQLDDLCNRLTRGI
# Variants of: B1
# Experiment: one-hybrid fitness for binding NBS DNA (the Noc-binding site; scaled: cognate 1, non-cognate 0); higher = stronger binding
# Conditions: with NBS DNA site
# Outline: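 Selection: bacterial one-hybrid in E. coli USO, HIS3 reporter with the site 19 bp from the promoter, 48 hours at 37°C on M9-minus-histidine plus 0.1 mM IPTG and 5 mM 3-AT. Libraries were Caulobacter ParB with four randomised specificity codons, sequenced on Illumina before and after selection. Fitness is the rescaled log change in variant-to-wild-type read ratio, anchored to the cognate and non-cognate sites.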
row,Variant,one-hybrid fitness for binding NBS DNA
1,HTPW,≤ 0.2
2,QHNN,≤ 0.2
3,TPWC,≤ 0.2
4,HKIY,≤ 0.2
5,HKIR,≤ 0.2
6,QELW,≤ 0.2
7,DYAT,≤ 0.2
8,KRER,0.368
9,WTFV,≤ 0.2
10,TYPM,≤ 0.2
11,RPIA,≤ 0.2
12,NMHS,≤ 0.2
13,QHYQ,≤ 0.2
14,PRDI,≤ 0.2
15,QNKG,≤ 0.2
16,PCKY,≤ 0.2
17,QLIG,≤ 0.2
18,MYCS,≤ 0.2
19,SECT,≤ 0.2
20,FPMV,≤ 0.2
21,FATV,≤ 0.2
22,IFEL,≤ 0.2
23,YYTG,≤ 0.2
24,YHST,≤ 0.2

row,Variant,one-hybrid fitness for binding NBS DNA
1,PSKH,≤ 0.2
2,SGRT,≤ 0.2
3,VIWL,≤ 0.2
4,RQEW,≤ 0.2
5,TPAW,≤ 0.2
6,PVTM,≤ 0.2
7,HVKL,≤ 0.2
8,RRCD,≤ 0.2
9,KYVC,≤ 0.2
10,VVTM,≤ 0.2
11,TDIW,≤ 0.2
12,LYES,≤ 0.2
13,NARC,≤ 0.2
14,KFHS,≤ 0.2
15,YMVV,≤ 0.2
16,VFSR,≤ 0.2
17,ARNM,≤ 0.2
18,FFWR,≤ 0.2
19,PSTM,≤ 0.2
20,NFNR,≤ 0.2
21,EQHT,≤ 0.2
22,YVSG,≤ 0.2
23,IFTM,≤ 0.2
24,RKIF,≤ 0.2

row,Variant,one-hybrid fitness for binding NBS DNA
1,HGMS,≤ 0.2
2,RTCE,≤ 0.2
3,FLNM,≤ 0.2
4,LHNT,≤ 0.2
5,DSRD,≤ 0.2
6,GANM,≤ 0.2
7,TAAM,≤ 0.2
8,TIMK,≤ 0.2
9,GRVL,≤ 0.2
10,HCGG,≤ 0.2
11,INMR,≤ 0.2
12,RLPK,≤ 0.2
13,FEDS,≤ 0.2
14,LMPS,≤ 0.2
15,SENT,≤ 0.2
16,SSPQ,≤ 0.2
17,QCIS,0.364
18,AMDA,≤ 0.2
19,KIYA,≤ 0.2
20,PKSH,≤ 0.2
21,HQYC,≤ 0.2
22,ESLT,≤ 0.2
23,YGAC,≤ 0.2
24,SVIA,≤ 0.2

row,Variant,one-hybrid fitness for binding NBS DNA
1,DRMG,≤ 0.2
2,KNGT,≤ 0.2
3,PTMM,≤ 0.2
4,VTFK,≤ 0.2
5,DKWG,≤ 0.2
6,QRVH,0.387
7,WHFT,≤ 0.2
8,SQVC,≤ 0.2
9,LCEC,≤ 0.2
10,CILA,≤ 0.2
11,RAKA,0.363
12,WRTN,≤ 0.2
13,PNYV,≤ 0.2
14,SDTF,≤ 0.2
15,PPLL,≤ 0.2
16,DTRT,≤ 0.2
17,FCNT,≤ 0.2
18,CWSA,≤ 0.2
19,RYEK,≤ 0.2
20,PERW,≤ 0.2
21,HRPG,≤ 0.2
22,RYSY,≤ 0.2
23,KYNT,≤ 0.2
24,MTPK,≤ 0.2

row,Variant,one-hybrid fitness for binding NBS DNA
1,SDSH,≤ 0.2
2,PDHG,≤ 0.2
3,EYCR,≤ 0.2
4,RFYK,≤ 0.2
5,PFLA,≤ 0.2
6,GAIL,≤ 0.2
7,TLNC,≤ 0.2
8,HTHM,≤ 0.2
9,ITHL,≤ 0.2
10,RTVM,≤ 0.2
11,NWST,≤ 0.2
12,GTVS,≤ 0.2
13,APYI,≤ 0.2
14,VMNV,≤ 0.2
15,KPPY,≤ 0.2
16,QRFG,0.249
17,ENYW,≤ 0.2
18,QHNI,≤ 0.2
19,FHSF,≤ 0.2
20,TEMV,≤ 0.2
21,PGMS,≤ 0.2
22,QGVN,≤ 0.2
23,NVAC,≤ 0.2
24,GQQF,≤ 0.2

row,Variant,one-hybrid fitness for binding NBS DNA
1,SARM,≤ 0.2
2,HYRT,≤ 0.2
3,WGSL,≤ 0.2
4,AAQT,≤ 0.2
5,DATE,≤ 0.2
6,YCSS,≤ 0.2
7,VILG,≤ 0.2
8,TGVS,≤ 0.2
9,YCFS,≤ 0.2
10,GLDN,≤ 0.2
11,AHFG,≤ 0.2
12,ESRH,≤ 0.2
13,RKQN,≤ 0.2
14,QMRR,1.02
15,IRTT,0.274
16,CEHT,≤ 0.2
17,NYIL,≤ 0.2
18,FTDY,≤ 0.2
19,SMWT,≤ 0.2
20,RKLN,≤ 0.2
21,HFAD,≤ 0.2
22,GCAL,≤ 0.2
23,MYAK,≤ 0.2
24,RYRF,≤ 0.2

row,Variant,one-hybrid fitness for binding NBS DNA
1,GEKY,≤ 0.2
2,RHAC,≤ 0.2
3,MVIT,≤ 0.2
4,SKMV,≤ 0.2
5,AYPY,≤ 0.2
6,WLII,≤ 0.2
7,YMPL,≤ 0.2
8,PHIF,0.293
9,AVRY,≤ 0.2
10,ICLC,≤ 0.2
11,PQNS,≤ 0.2
12,APLH,≤ 0.2
13,DDTE,≤ 0.2
14,PCDV,≤ 0.2
15,TIEI,≤ 0.2
16,VCSG,≤ 0.2
17,TLTR,≤ 0.2
18,VTGT,≤ 0.2
19,ETTY,≤ 0.2
20,ETTM,≤ 0.2
21,RMKP,≤ 0.2
22,AVMA,≤ 0.2
23,ESTG,≤ 0.2
24,QTMS,0.463

row,Variant,one-hybrid fitness for binding NBS DNA
1,HVSP,≤ 0.2
2,RRKR,0.929
3,RNND,≤ 0.2
4,EMSA,≤ 0.2
5,NTDQ,≤ 0.2
6,EGRS,≤ 0.2
7,GKQF,≤ 0.2
8,PQQD,≤ 0.2
9,EGPR,≤ 0.2
10,WESK,≤ 0.2
11,RRSN,0.356
12,KDGS,≤ 0.2
13,FSNE,≤ 0.2
14,GEWA,≤ 0.2
15,ANAT,≤ 0.2
16,VVKA,≤ 0.2
17,HQQT,≤ 0.2
18,HATI,≤ 0.2
19,GCKY,≤ 0.2
20,MEHR,≤ 0.2
21,VVHC,≤ 0.2
22,CNYE,≤ 0.2
23,NPSS,≤ 0.2
24,TIAK,≤ 0.2

row,Variant,one-hybrid fitness for binding NBS DNA
1,YMAG,≤ 0.2
2,NVSC,≤ 0.2
3,TDYS,≤ 0.2
4,VRSP,≤ 0.2
5,YCTT,≤ 0.2
6,RSQG,≤ 0.2
7,CTPS,≤ 0.2
8,QYTS,0.396
9,RTPK,≤ 0.2
10,SMEL,≤ 0.2
11,HMSY,≤ 0.2
12,QSWK,≤ 0.2
13,RMET,≤ 0.2
14,ACKC,≤ 0.2
15,SWTV,≤ 0.2
16,AGGD,≤ 0.2
17,FTKI,≤ 0.2
18,PKPC,≤ 0.2
19,QGQY,≤ 0.2
20,QTYP,≤ 0.2
21,RHSA,≤ 0.2
22,TRER,≤ 0.2
23,TRDW,≤ 0.2
24,TGVT,≤ 0.2

row,Variant,one-hybrid fitness for binding NBS DNA
1,ADWR,≤ 0.2
2,DIAR,≤ 0.2
3,AYEV,≤ 0.2
4,DQDG,≤ 0.2
5,IVDK,≤ 0.2
6,LYGS,≤ 0.2
7,NQKT,≤ 0.2
8,YQER,≤ 0.2
9,EYSD,≤ 0.2
10,RQIT,0.221
11,LSNL,≤ 0.2
12,QSHV,0.201
13,QESK,≤ 0.2
14,WVIY,≤ 0.2
15,NYCL,≤ 0.2
16,GHKC,≤ 0.2
17,QHPV,≤ 0.2
18,KLET,≤ 0.2
19,TTTD,≤ 0.2
20,ELVS,≤ 0.2
21,VMTS,≤ 0.2
22,FILC,≤ 0.2
23,TYES,≤ 0.2
24,QEAA,≤ 0.2

row,Variant,one-hybrid fitness for binding NBS DNA
1,MSKC,≤ 0.2
2,AMWS,≤ 0.2
3,TLQV,≤ 0.2
4,DRWR,≤ 0.2
5,HAVA,≤ 0.2
6,ELAT,≤ 0.2
7,IARC,≤ 0.2
8,QEIC,≤ 0.2
9,WTTG,≤ 0.2
10,RRIK,0.216
11,DARG,≤ 0.2
12,AMLS,≤ 0.2
13,QNYT,≤ 0.2
14,DPYT,≤ 0.2
15,KQPR,≤ 0.2
16,CKKT,≤ 0.2
17,AKPF,≤ 0.2
18,RYVW,≤ 0.2
19,KALL,≤ 0.2
20,ADNS,≤ 0.2
21,IISL,≤ 0.2
22,SGRA,≤ 0.2
23,IDEP,≤ 0.2
24,HGTG,≤ 0.2

row,Variant,one-hybrid fitness for binding NBS DNA
1,PIAW,≤ 0.2
2,LFVD,≤ 0.2
3,MGRC,≤ 0.2
4,CWLC,≤ 0.2
5,WVEC,≤ 0.2
6,DCRM,≤ 0.2
7,ESCG,≤ 0.2
8,MAER,≤ 0.2
9,CHLC,≤ 0.2
10,TLGP,≤ 0.2
11,KMPE,≤ 0.2
12,FANC,≤ 0.2
13,ATSM,≤ 0.2
14,RWGH,≤ 0.2
15,LVKC,≤ 0.2
16,VMPN,≤ 0.2
17,LLSC,≤ 0.2
18,VEIW,≤ 0.2
19,TQLA,≤ 0.2
20,AKLY,≤ 0.2
21,QFSW,≤ 0.2
22,SRMN,≤ 0.2
23,CGNG,≤ 0.2
24,GLLL,≤ 0.2

row,Variant,one-hybrid fitness for binding NBS DNA
1,IRQT,0.235
2,QALD,≤ 0.2
3,AYFR,≤ 0.2
4,QMQG,≤ 0.2
5,EQLW,≤ 0.2
6,PSSS,≤ 0.2
7,QFKH,≤ 0.2
8,IKIC,≤ 0.2
9,ETLN,≤ 0.2
10,SPGQ,≤ 0.2
11,RGQC,≤ 0.2
12,QTDQ,≤ 0.2
13,QTHA,0.441
14,IQGF,≤ 0.2
15,IRQS,≤ 0.2
16,AGPS,≤ 0.2
17,RCID,≤ 0.2
18,RSPN,≤ 0.2
